# In all, about 110,000 compounds were measured (“z-score”: median about -0.1, highest 2% from about 2 on). The list shows a part of the results. Active and inactive are the calls of the source.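 How the source made its calls: active means z-score in the third read window above 3 or below -3; inactive means the rest.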
# Biological target: Metabotropic glutamate receptor 8 (Rattus norvegicus) (UniProt P70579)
# Test: mGluR8 Gi/Go-coupled signaling modulation – cell-based, rat, thallium flux, HTS, primary screen (AID 488969)
# Details: HEK293 rat mGluR8, GIRK (G protein-gated inwardly rectifying potassium channel) thallium flux, FluoZin2; at 10 µM; stronger effect = higher value; submaximal glutamate (EC20) added with thallium
# UniProt P70579, sequence (P70579 whole entry, looked up): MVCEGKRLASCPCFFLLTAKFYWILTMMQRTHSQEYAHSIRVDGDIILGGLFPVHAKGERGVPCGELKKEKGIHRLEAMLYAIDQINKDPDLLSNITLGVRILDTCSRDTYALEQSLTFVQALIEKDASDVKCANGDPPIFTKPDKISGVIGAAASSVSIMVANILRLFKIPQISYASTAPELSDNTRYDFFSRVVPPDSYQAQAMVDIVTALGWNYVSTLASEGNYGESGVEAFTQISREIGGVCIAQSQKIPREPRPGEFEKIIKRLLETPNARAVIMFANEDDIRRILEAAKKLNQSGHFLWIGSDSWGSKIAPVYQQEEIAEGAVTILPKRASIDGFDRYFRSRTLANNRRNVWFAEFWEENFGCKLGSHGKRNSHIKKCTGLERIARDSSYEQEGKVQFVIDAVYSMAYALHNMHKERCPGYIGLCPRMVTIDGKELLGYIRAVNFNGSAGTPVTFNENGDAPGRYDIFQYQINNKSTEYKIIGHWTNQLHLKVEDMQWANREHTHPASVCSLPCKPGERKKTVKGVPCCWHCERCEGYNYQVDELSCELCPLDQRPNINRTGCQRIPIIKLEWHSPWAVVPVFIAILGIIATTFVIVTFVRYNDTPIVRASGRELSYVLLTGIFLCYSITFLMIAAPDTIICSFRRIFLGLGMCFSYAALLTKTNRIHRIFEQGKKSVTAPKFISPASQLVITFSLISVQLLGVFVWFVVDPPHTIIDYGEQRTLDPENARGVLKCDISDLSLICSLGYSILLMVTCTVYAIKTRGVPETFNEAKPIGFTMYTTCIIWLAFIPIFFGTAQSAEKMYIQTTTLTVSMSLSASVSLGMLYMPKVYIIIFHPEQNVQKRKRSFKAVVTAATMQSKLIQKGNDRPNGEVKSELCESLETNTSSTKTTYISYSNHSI
row,SMILES,z-score
1,COc1cc(C)c(CNc2cccc(C)c2)cc1C,-0.167
2,CCCCSC1(SCCCC)N=C(N)C2(C#N)C(c3ccccc3)NC(C)=CC12C#N (configuration not stated),0.584
3,CC(C)(C)C1CCC(OC(=O)CN2CCOCC2)CC1 (configuration not stated),0.247
4,CC(=O)NC1CC2CCCC(C1)N2C(=O)Nc1ccccc1 (configuration not stated),0.0058
5,Cc1cc(C)cc(OCC(=O)OCCN2C(=O)c3ccccc3C2=O)c1,-0.436
6,O=C(N/N=C/c1ccc2cccc(OCc3ccccc3)c2n1)c1ccc(Br)cc1,active: 3.65
7,Cc1cc(NC(=O)CCC(=O)N(CC2CCCO2)C(C(=O)NC2CCCC2)c2cccnc2)no1 (configuration not stated),-0.847
8,COc1ccc(C)cc1NC(=O)C(CCS(C)(=O)=O)NC(C)=O (configuration not stated),0.425
9,CC(C)NC(=O)CSCc1c(Cl)cccc1Cl,-0.342
10,COc1ccc(NCc2nnc(SCC(=O)N3CCCc4ccccc43)o2)cc1,0.966
11,COc1ccc(C(=O)Nc2nncs2)c(OC)c1,-0.284
12,CCCOc1ccc(OCCNC2CCCC2)cc1,-0.38
13,CC(C)CC1(C(=O)O)NC(c2ccccc2O)C2C(=O)N(C(C)C)C(=O)C21 (configuration not stated),0.0479
14,CCN1CCCC1CNC(=O)CCc1nc(-c2ccc(C)cc2)no1 (configuration not stated),0.135
15,O=C(COc1ccc(-c2ccccc2)cc1)N1CCN(S(=O)(=O)Cc2ccccc2)CC1,-0.348
16,CC(C1CC1)N(C(=O)NC1CCS(=O)(=O)C1)c1ccccc1 (configuration not stated),-0.27
17,COc1ccc2nc(C(C)O)[nH]c2c1 (configuration not stated),0.0783
18,Fc1ccccc1CSc1nnc(-c2cnccn2)n1Cc1ccco1,-0.613
19,COc1cc(NS(=O)(=O)c2ccc(NC(=S)NC(=O)c3sc4cc(F)ccc4c3Cl)cc2)nc(OC)n1,-0.162
20,CN(C)S(=O)(=O)c1cccc(NC(=O)c2cc(-c3cccs3)nc3ccccc23)c1,-0.162
21,Cc1cc(NC(=O)CSc2nc3ccccc3c(=O)n2-c2ccccc2)no1,-0.161
22,Cc1nc(C)c(C(=O)NNS(=O)(=O)c2ccc([N+](=O)[O-])cc2)s1,-0.481

row,SMILES,z-score
1,COc1ccc(N2CC(C(=O)Nc3nnc(SCc4ccccn4)s3)CC2=O)cc1 (configuration not stated),-0.304
2,COc1ccc(C(CNC(=O)CCOc2ccccc2)N(C)C)cc1 (configuration not stated),-0.0296
3,C=CCc1cccc2cc(C(=O)OCC(=O)c3ccccc3)c(=O)oc12,0.222
4,O=C(COc1ccccc1-c1ccccc1)c1ccccc1,-0.207
5,COc1ccc(-c2nc3ccccc3c(=O)o2)cc1OC,-0.408
6,CC(Nc1ccc(Br)cc1)C(=O)N/N=C/c1ccccc1OCc1ccccc1 (configuration not stated),-0.283
7,Cc1cc(C)cc(N(CC(=O)Nc2ccc(-c3nc4ccc(C)cc4s3)cc2)S(C)(=O)=O)c1,-0.143
8,O=C(Nc1ncc(Cc2cccc(C(F)(F)F)c2)s1)c1ccc(-c2cccc([N+](=O)[O-])c2)o1,0.182
9,Cc1cc(C)c(C#N)c(Sc2nnnn2-c2ccccc2)n1,-0.338
10,O=C(CSc1ccccn1)N1CCN(c2ccccc2)CC1,0.0291
11,COCCn1c(SCC(=O)NCc2ccc3c(c2)OCO3)nnc1-c1c[nH]c2ccccc12,-0.0146
12,O=c1c2c([nH]c3ccccc13)C(=C1CCCC1)CC2,-0.328
13,CCc1ccc(C(=O)COC(=O)c2cnccn2)cc1,0.13
14,CC(=O)Nc1cc(C(=O)N2CCN(C)CC2)ccc1Sc1ccc(C)cc1,-0.253
15,CC(C)(C)OC(=O)N/N=C/c1ccc(C(=O)O)cc1,-0.193
16,Clc1ccccc1OCc1nc(-c2ccncc2)no1,-0.364
17,CCOCC(=O)Nc1nc2ccc(OCC)cc2s1,-0.0823
18,Cc1[nH]n(-c2ccccc2)c(=O)c1-c1ccc(Cl)cc1,0.236
19,N#CNC(=Nc1cccc(F)c1)SCc1cccc(F)c1,-0.141
20,CSc1nnc2n(-c3ccccc3)c(=O)c3c4c(sc3n12)CCC4,-0.327
21,COc1ccc(C(=O)N/N=C/c2ccc(OC(=O)c3cccs3)cc2)cc1,-0.212
22,COc1cc(CC(=O)NCCc2ccc(S(N)(=O)=O)cc2)cc(OC)c1OC,0.334

row,SMILES,z-score
1,Cc1nn(Cc2c(F)c(F)c(F)c(F)c2F)c(C)c1NC(=O)c1ccc(COc2ccccc2Cl)cc1,-0.141
2,Cc1cc2cc(CNC(=O)c3ccc(S(=O)(=O)N(C)C)cc3)ccc2n1C,-0.0521
3,CC(Sc1ccc(Cl)cc1)C(=O)NCc1cccnc1 (configuration not stated),-0.988
4,CCOC(=O)CSc1nc2c(sc3ccc([N+](=O)[O-])cc32)c(=O)n1Cc1ccco1,-0.436
5,Cc1ccc2nc(SCCCCOc3ccccc3)[nH]c2c1,-0.322
6,O=C(NCCc1ccccc1Cl)C1CCN(S(=O)(=O)c2cccs2)CC1,0.00999
7,Cc1cc(C)c(C#N)c(N2CCN(Cc3ccc4c(c3)OCO4)CC2)n1,-0.0896
8,CC(=O)c1c(C)[nH]c(C(=O)OCC(=O)NCCc2ccc(F)cc2)c1C,0.162
9,CC(C)n1c(SCC(=O)Nc2nc3ccccc3s2)nc2c1c(=O)n(C)c(=O)n2C,-0.303
10,C=CCn1c(SCc2csc(-c3ccc(Cl)cc3)n2)nnc1-c1ccccc1OC,-0.516
11,COc1ccc(C(=O)NNC(=S)NC(=O)c2ccco2)cc1,2.99
12,COCCOC(=O)C1=C(C)NC2=C(C(=O)CC(C)(C)C2)C1c1ccc(N(C)C)cc1 (configuration not stated),-0.192
13,CCCC(=O)Nc1ccc(C(=O)NNC(=O)c2ccco2)cc1,-0.0576
14,Cc1sc2nc(C3CCCCC3)nc(SCC(=O)N3CC(=O)Nc4ccccc43)c2c1C,-0.0509
15,CC1(c2ccccc2)CC(C)(C)N2C(=O)C3(C(C#N)=C(N)Oc4cc(O)ccc43)c3cccc1c32 (configuration not stated),-0.217
16,Cc1cc(C)cc(NC(=O)c2snc3c(=O)[nH]cnc23)c1,-0.739
17,CCn1c(SCC(=O)Nc2ccc(S(=O)(=O)Nc3ccccn3)cc2)nnc1-c1ccncc1,0.0215
18,COc1ccccc1CN(Cc1nc2ccccc2c(=O)[nH]1)C(=O)Nc1ccccc1C,-0.365
19,N#CCSc1nnc(C2CCCCC2)n1Cc1ccccc1,0.969
20,CC(C)c1ccc(/C=N/Nc2ccc(C(=O)O)cc2)cc1,-0.222
21,COc1cccc(N/C=C(\C#N)c2ccc(OCCCF)cc2)c1,0.135
22,O=c1nc2s/c(=C\c3ccco3)c(=O)n2nc1Cc1ccccc1,-0.176

row,SMILES,z-score
1,COc1ccc(NC(=O)c2ccc(C(=O)c3cc(OC)ccc3OC)cc2)cc1,-0.232
2,O=C(COC(=O)CCc1nc2ccccc2c(=O)[nH]1)NC(=O)NC1CCCC1,-0.336
3,Nc1nonc1-c1nc2ccccc2n1CC(=O)N1CCN(c2ccc(F)cc2)CC1,-0.117
4,COc1ccc(OCCOCCOc2ccc(C)cc2[N+](=O)[O-])cc1,-0.176
5,O=C(c1ccco1)N1CCN(C(=O)c2sccc2-c2ccccc2)CC1,1.95
6,CCC(C)NS(=O)(=O)c1ccc(NS(C)(=O)=O)cc1 (configuration not stated),-0.507
7,O=C1c2ccc(Oc3ccc4c(c3)C(=O)N(CCCCO)C4=O)cc2C(=O)N1CCCCO,-0.145
8,CCOC(=O)c1c(C2CC2)csc1NC(=O)COC(=O)c1cc(OC)c(OC)cc1[N+](=O)[O-],-0.175
9,COc1ccc(-c2nc(CSCC(=O)N3CCC(C(N)=O)CC3)c(C)o2)cc1OC,-1.77
10,Cc1ccc(Nc2nc(N/N=C/c3c[nH]c4ccccc34)nc(N3CCOCC3)n2)cc1,-0.18
11,Cc1cc(NC(=O)C2CCCCC2)n(-c2nc3ccccc3[nH]2)n1,-0.0909
12,CCCN1C(=O)C(O)(CC(=O)c2cccc(OC)c2)c2ccccc21 (configuration not stated),0.257
13,CCNc1nc2ccccc2[nH]1,-0.309
14,COC(=O)C(C(=O)Nc1ncccn1)C1CCCCCC1 (configuration not stated),0.0614
15,CCCNC(=O)c1cc(-c2ccc(OC)cc2)on1,-0.153
16,COC(=O)c1cc(OC)c(OC)cc1NCC(=O)Nc1ccc(C)cc1,-0.403
17,Cc1ccccc1Nc1nc(-c2sc(NC(=O)c3ccco3)nc2C)cs1,-0.239
18,C(=C\c1ccccc1)/C=N/Nc1nc(N2CCCCC2)nc(N2CCCCC2)n1,-0.259
19,C=CCNC(=O)CNS(=O)(=O)c1ccc(F)cc1,0.263
20,COc1cccc(NC(=S)N(CCN(C)C)C(C)c2ccco2)c1 (configuration not stated),-0.105
21,CCNc1nc(NC(C)C)nc(Oc2ccc(OCCOc3ccc(C)cc3)nn2)n1,-0.284
22,O=C(CSc1nnc(-c2ccncc2)n1Cc1ccco1)Nc1nc(-c2ccccc2)cs1,-0.325

row,SMILES,z-score
1,Cc1noc(C)c1S(=O)(=O)N1CCCC(C(=O)NCCC2=CCCCC2)C1 (configuration not stated),0.423
2,COc1cc(OC)cc(C(=O)Nc2cccc(N3CCCC3)c2)c1,0.0419
3,CC(C)(C)NC(=O)NC(=O)COc1ccc(Br)cc1Br,-0.456
4,Oc1ccc(Br)cc1-c1cc(-c2ccccc2F)[nH]n1,-0.636
5,O=C(Nc1cccc2c1CCCC2)c1ccc(Cl)c([N+](=O)[O-])c1,-0.222
6,O=C1NNC(=O)C2C3C=CC(C4CC34)C12 (configuration not stated),-0.491
7,CC(/C=N/NC(=O)c1cccnc1)=C\c1ccco1,1.77
8,NC(=O)c1ccccc1OCC(=O)NS(=O)(=O)c1ccc(Cl)cc1,-0.342
9,CCC(C)(C)NC(=O)C(c1ccc(C)cc1)N(Cc1ccco1)C(=O)Cn1nnc2ccccc21 (configuration not stated),0.651
10,CCOC(=O)c1ccccc1NC(=O)Cn1c(=O)n(Cc2ccccc2)c(=O)c2c(C)c(C)sc21,-0.19
11,Cc1ccc(Nc2nnc(SC/C(O)=C(\C#N)c3nc4ccccc4[nH]3)s2)c(C)c1,-0.166
12,C=CCN1C(=O)C(Cc2cccc(C)c2)SC1=Nc1ccc(C(=O)O)cc1 (configuration not stated),-0.381
13,CN(C(=O)Cn1nnc(-c2cccc(C(F)(F)F)c2)n1)C1CCCCC1,0.0755
14,CCSc1nnc(NC(=O)C(CC)(C(F)(F)F)C(F)(F)F)s1,-0.322
15,Cc1cc(C(=O)N/N=C/c2cccc(OC(=O)c3ccco3)c2)n[nH]1,-0.279
16,COC(=O)c1nn(-c2ccccc2)c(Cl)c1/C=N/OCc1ccc(C)cc1,-0.126
17,N=c1n(CCc2ccccc2)c2ccccc2n1Cc1ccccc1F,1.16
18,O=c1c2c3c(sc2n2cnnc2n1CCc1ccccc1)CCCC3,-0.405
19,COc1ccc(NC(=O)CCNS(=O)(=O)c2ccc(Br)s2)cc1,-0.185
